Reference: article PMC12136788
The other results are listed elsewhere or left out.

T1: UNK ZnF1-3 (human, UniProt Q9C0B0 31-174)
T1 sequence: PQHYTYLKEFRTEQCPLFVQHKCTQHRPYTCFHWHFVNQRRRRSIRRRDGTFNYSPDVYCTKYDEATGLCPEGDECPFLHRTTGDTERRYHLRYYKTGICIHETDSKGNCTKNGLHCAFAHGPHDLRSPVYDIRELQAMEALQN

B1: chr7:107790313:107790314:-_ENSG00000091129_ENST00000351718|hu_mus|FALSE|FALSE (ssRNA)
RNA: GGGAGUUCUACAGUCCGACGAUCAACAUUCUUUCUACCCAUAUGUCCGUAGUAUGAGAGGGAUGACAGGUGUUCAGGAAAACCAUUCCAGAGAGAUUAGACAUUGGCACAGAGCUUAAAGACUUAAACAAAGGAGUUCAUUGCCAACAGAGGAUUGAGCAUCA
B2: chr5:145543945:145543946:-_ENSG00000133706_ENST00000545646|hu_hu|hu_hu_hu_mus_True|38_58 (ssRNA)
RNA: GGGAGUUCUACAGUCCGACGAUCCUGAACGGCCAGUGGUGGGAAAUAAUCAAGCCAGUGCUCUGCUUCAGAAAACUUUACUAUCUCGUCAUCAGAGAGGCCAAGGGAUUUCAUAAUGUCCCACUGGUACUUAGAAGAUCCUGCCAACAGAGGAUUGAGCAUCA
B3: chr14:90870812:90870813:+_ENSG00000198668_ENST00000553542|hu_hu|motif|central (ssRNA)
RNA: GGGAGUUCUACAGUCCGACGAUCAUCAAUAUCUGCUUCUCUGAUCAUUUCAUCUACUUCUUCAUCUGUUAGUUUUUCUCCGGAGUUUGUCAUGACGUGACGUAGUUCUGCUGCACUGAUAUAACCAUUGCCAUCCUUGUCAAACAACAGAGGAUUGAGCAUCA
B4: chr5:128440902:128440903:+_ENSG00000066583_ENST00000173527|hu_mus|hu_hu_hu_mus_True|1_108 (ssRNA)
RNA: GGGAGUUCUACAGUCCGACGAUCUUGAACCGUGCUCCCAAGUCCUUUGGGGUAUUGUUCCGUUAUGAUAACUGGAAUCCCUAAGAUCCGAGCUCCUUGCAACAGUCUCUGUCCCACACUAAUGAUGUCCCCAAAGUACUUGAUCAACAGAGGAUUGAGCAUCA
B5: chr14:55655841:55655842:-_ENSG00000126787_ENST00000247191|hu_mus|motif|central (ssRNA)
RNA: GGGAGUUCUACAGUCCGACGAUCCACCCUGUGUCUGUUCUCCUUCUGAGACAGAGACUUUCUAUGAGCCAAGUUGGUUCGGACCAUCUCAGUGCUCGAGUCUUUCCGAAACCGACUGGCAAAACGUGACACCAGCAUCCUGAACAACAGAGGAUUGAGCAUCA
B6: chr1:163112212:163112213:-_ENSG00000143248_ENST00000313961|hu_hu|hu_hu_hu_mus_False|18_48 (ssRNA)
RNA: GGGAGUUCUACAGUCCGACGAUCUUUUAUUAUCAGUAAGAGUGAGUUACAUACUAGGCAAAGUAUUGGAUACAAUAAUCAGGAAACAAACACAAUUGGUCCAGAAUUUAAAACUUUUGGGAUAAAUUGCUGGCACAGGACUUACAACAGAGGAUUGAGCAUCA
B7: 88053082_88053202_5199_CDS_ENSMUSG00000038368_ENSMUST00000097992|mouse|control|control (ssRNA)
RNA: GGGAGUUCUACAGUCCGACGAUCGAGAACCUCUUGCACAGUGACUCUAUGCAUGGGACUCCUGCCAAGCAAGGCUGCUGCUGGCCCACCAGGGCCAUUCUGCUGGUGCCAUGGCAACCAACUGGCACUAAGGCCAAGGAGAAGCAACAGAGGAUUGAGCAUCA
B8: 56458565_56458685_4900_CDS_ENSG00000151914_ENST00000244364|human|control|control (ssRNA)
RNA: GGGAGUUCUACAGUCCGACGAUCAGAUUUGGCAGCUUCCAACACUCUGUUUCCAGAAAUUGUGAUGUAUCUCAAGUCACCUUUGUGAGAAAUAACGUCUUCUGAGAAACUCUUCUGCCUCUUCAAUUUGGUCAUUAAACCAUUCAACAGAGGAUUGAGCAUCA
B9: chrX:98862621:98862622:+_ENSMUSG00000034160_ENSMUST00000044475|mus_hu|mus_mus_mus_hu_False|18_38 (ssRNA)
RNA: GGGAGUUCUACAGUCCGACGAUCCUGCAUCUCCUUUAGAGUGUUUCCCAUAUUAGAGUAGGCAUCAGCAAAGGUAGGACUGAUUCGAAUAGCCUCCUUAUAGUGCAUCAGAGCUUCCUGCAGCUUGCCCUGCUGCUGCAGUACCAACAGAGGAUUGAGCAUCA
B10: 76963365_76984073_229_5pUTR_ENSMUSG00000033565_ENSMUST00000166610|mouse|control|control (ssRNA)
RNA: GGGAGUUCUACAGUCCGACGAUCGUUACCCUGAGUUACCAUUUUCUUUUUCUCCAUAAACCAGAAGAAGCAGAUGAUAACCAGUUGGAAGCCGCCGUAGCGGGGCACACCUCUGUGGCUCUCUGCCACCCCGUCCCCAGCUAGCAACAGAGGAUUGAGCAUCA
B11: chr11:46405157:46405158:+_ENSG00000110492_ENST00000395566|hu_hu|hu_hu_hu_mus_False|68_88 (ssRNA)
RNA: GGGAGUUCUACAGUCCGACGAUCCCCUCCCCACUUUGGGCACUUGGUGAGAGGGACAGAGGACAGGAUGAUUGAUUAGAGCUGACAGGAAGACAAAAGGCACUGGUGGGUUAUAUCUUGGGCCUGUGGGAGAGGAGGGCUCCGCAACAGAGGAUUGAGCAUCA
B12: chr5:5249095:5249096:-_ENSMUSG00000028926_ENSMUST00000030763|mus_mus|FALSE|FALSE (ssRNA)
RNA: GGGAGUUCUACAGUCCGACGAUCUUUAAAGUUAAUGCAUGCAUUGUUCUCAGAAUGGACCCUUUUGACUUGGUUGGCUGGUUUCUCAAAUGGGUCAAAAGUGCUCUGCGUCCUCUGAACCCUGACUUUCUUGUCUUCAGGAAUCAACAGAGGAUUGAGCAUCA
B13: chr2:198351390:198351391:-_ENSG00000144381_ENST00000345042|hu_hu|hu_hu_hu_mus_False|1_1 (ssRNA)
RNA: GGGAGUUCUACAGUCCGACGAUCUCAUUCCCACCCUCCACAGAAAGGCUGCUUCUGAACUCUCAUGUGGUGACACAGCGCUACAGUCCUGAUGCUCACAGAACAGUAGAGAUGCCUCAGUGAUUUAAGUUGAAAGCAGCAGUACAACAGAGGAUUGAGCAUCA
B14: 28713107_28714254_1622_CDS_ENSMUSG00000048271_ENSMUST00000114884|mouse|control|control (ssRNA)
RNA: GGGAGUUCUACAGUCCGACGAUCAGGCGGCGGUGGAGGAGGACUUCGCUGUUCCAAAAAAAGAUGACUGGGGAAUCUUGGUUCACCUGAAACUCCUAAGAAGAAAGGGUCUCGUUCCUGAGGUGGGGGUGGGGCUCUCCACUGCAACAGAGGAUUGAGCAUCA

Each binder was assayed against T1, UNK ZnF1-3 (assay: nsRBNS (natural sequence RNA bind-n-seq); RBNS binding buffer (assumed for nsRBNS): 25 mM Tris pH 7.5, 150 mM KCl, 3 mM MgCl2, 0.01% Triton X-100, 500 ug/ml BSA, 20 U/ml SUPERase-In, 4 C; UNK is unkempt and MSI1 is Musashi-1; names of the RNAs are library labels; protein concentration not given here; high values mean tight binding).
B1 was tested, and the binding signal was 2.09 enrichment R.
B2 gave a binding signal of 1.07 enrichment R.
For B3, the binding signal was 0.438 enrichment R.
Binder B4 has a binding signal of 0.586 enrichment R.
Work on B5 yielded a binding signal of 0.73 enrichment R.
B6 was tested, and the binding signal was 1.5 enrichment R.
B7 showed a binding signal of 0.928 enrichment R.
Work on B8 yielded a binding signal of 0.705 enrichment R.
B9 was tested, and the binding signal was 0.992 enrichment R.
B10 showed a binding signal of 0.461 enrichment R.
With B11 the binding signal was 2.23 enrichment R.
Binder B12 has a binding signal of 0.505 enrichment R.
B13 was tested, and the binding signal was 1.21 enrichment R.
B14 showed a binding signal of 1.59 enrichment R.
